Read counts are not given, so values of variants with three or more changes are uncertain.
B1: CPEB3 Ribozyme (parent)
chain: UAACAGGGGGCCACAGCAGAAGCGUUCACGUCGCAGCCCCUGUCAGAUUCUGGUGAAUCUGCGAAUUCUGCUGUAUAUCUC

Variants of: B1
Assay: self-cleavage, relative activity (ratio to wild type); higher = more cleavage; in vitro, sequencing
Procedure, shortened: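 Libraries of CPEB3 self-cleaving ribozyme mutants came from rounds of error-prone PCR and carried barcodes, which DNA sequencing matched to variants. In vitro transcription used T7 RNA polymerase at 37°C for 5 hours, with a further 15 min in DNase I before EDTA stopped the reaction; the ribozymes cleaved during both steps. The RNA was reverse transcribed with template switching and sequenced on Illumina. Relative activity is the cleaved/total read fraction of a variant divided by that of the unmutated ribozyme, averaged over three batches with at least 5 reads.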

Variant | self-cleavage
UAACAGGGGGCCACAGCAGGAGCGUUCACGUCGCCGCCCCUGUCAGAUUCUGGUGAACCUGCGAAUUCUGCUGUAUAUCUC [A20G A35C U58C] | 0.57
UAACAGGGGGCCACAGCAGGAGCGUUCACGUCGCCGCCCCUGUCAGAUUCUGGUGAAUCCGCGAAUUCUGCUGUGUUUCUC [A20G A35C U60C A75G A77U] | 0.17
UAACAGGGGGCCACAGCAGGAGCGUUCACGUCGCGGCCCCUGUCAGAUUCUGGUGAAUCUGCGGAUUCUGCUGUAUAUCCC [A20G A35G A64G U80C] | 1.14
UAACAGGGGGCCACAGCAGGAGCGUUCACGUCGCGGCCCCAGUCAGAUUCCGGUGAAUCUGCGAAUUCUGCUGUAUAUCUC [A20G A35G U41A U51C] | 0.41
UAACAGGGGGCCACAGCAGGAGCGUUCACGUCGCGGCCCCUGUCAGAUUCUGGUGAAUCUGCGAAUUCUGCUGUAUAUCCC [A20G A35G U80C] | 1.2
UAACAGGGGGCCACAGCAGGAGCGUUCACGUCGCUGCCCCUGUCGGAUUCUGGUGAAUCUGCGAGUUCCGCUGUAUAUCUC [A20G A35U A45G A65G U69C] | 0.26
UAACAGGGGGCCACAGCAGGAGCGUUCACGUCGCUGCCCCUGUCAGAUUCUGGUGUAUCUGUGAAUUCUGCUGUAUAUCUC [A20G A35U A56U C62U] | 0.06
UAACAGGGGGCCACAGCAGGAGCGUUCACGUCGCUGCCCCUAUCAGAUUCUGGUGAAUCUGCGAAUUCUGCUGUAUAUCUC [A20G A35U G42A] | 0.54
UAACAGGGGGCCACAGCAGGAGCGUUCACGUCGCUGCCCCAGUCAGAUUCUGGUGAAUCUGCGAAUUCUGCUGUAUAUCUC [A20G A35U U41A] | 0.25
UAACAGGGGGCCACAGCAGGAGCGUUCACGUCGCUGCCCCUGUCAGACUCUGGUAACUCUGCGAAUUCUGCUGUAUAUCUC [A20G A35U U48C G55A A57C] | 0.24
UAACAGGGGGCCACAGCAGGAGCGUUCACGUCGCUGCCCCUGUCAGAUUCGGGUGAAUCUGUGGAUUCUGCUGUAUAUCUC [A20G A35U U51G C62U A64G] | 0.09
UAACAGGGGGCCACAGCAGGAGCGUUCACGUCGCUGCCCCUGUCAGAUUCUGGCGAAUCUGCGAAUUCUGCUGUAUAUCUC [A20G A35U U54C] | 0.3
UAACAGGGGGCCACAGCAGGAGCGUUCACGUCGCUGCCCCUGUCAGAUUCUGGUGAAUCAGCGAAUUCUGCAGUAUAUCUC [A20G A35U U60A U72A] | 0.07
UAACAGGGGGCCACAGCAGGAGCGUUCACGUCGCAGCCCCUGUCCGAUUCUGGUGAAUCUGCGAAUUCUGCUGAAUAUCUC [A20G A45C U74A] | 0.66
UAACAGGGGGCCACAGCAGGAGCGUUCACGUCGCAGCCCCUGUCGGGUUCUGGUGAAUCUGCGAAUUCUGCUGUAUAUCUC [A20G A45G A47G] | 0.24
UAACAGGGGGCCACAGCAGGAGCGUUCACGUCGCAGCCCCUGUCGGAUUCUGGUGAAUCUGCGGAUUCUGCUGUAUAUCUC [A20G A45G A64G] | 0.45
UAACAGGGGGCCACAGCAGGAGCGUUCACGUCGCAGCCCCUGUCGGAUUCUGGUGAAUCUGCGAACUCUGCUGUAUAUCUC [A20G A45G U66C] | 0.19

Variant | self-cleavage
UAACAGGGGGCCACAGCAGGAGCGUUCACGUCGCAGCCCCUGUCGGAUUCUGGUGAAUCUGCGAAUUCUGCUGUAUAUCCC [A20G A45G U80C] | 0.82
UAACAGGGGGCCACAGCAGGAGCGUUCACGUCGCAGCCCCUGUCUGAUUCUGGUGAAUCUGCGAAUUCUGCUGUUUAUCCC [A20G A45U A75U U80C] | 0.61
UAACAGGGGGCCACAGCAGGAGCGUUCACGUCGCAGCCCCUGUCUGAUCCCGGUGAAUCUGCGAAUUCCGCUGUAUAUCAC [A20G A45U U49C U51C U69C U80A] | 0.15
UAACAGGGGGCCACAGCAGGAGCGUUCACGUCGCAGCCCCUGUCUGAUUCUGGCGAAUCUCCGAGUUCUGCUGAAUAUCUC [A20G A45U U54C G61C A65G U74A] | 0.09
UAACAGGGGGCCACAGCAGGAGCGUUCACGUCGCAGCCCCUGUCUGAUUCUGGUGAAUCUGCGAAUUCUGCAGUAUAUCUC [A20G A45U U72A] | 0.15
UAACAGGGGGCCACAGCAGGAGCGUUCACGUCGCAGCCCCUGUCUGAUUCUGGUGAAUCUGCGAAUUCUGCCGUAUAUCUC [A20G A45U U72C] | 0.13
UAACAGGGGGCCACAGCAGGAGCGUUCACGUCGCAGCCCCUGUCAGGUUCUGGUGGAUCUGCGAAUUCUGCUGUAUAUCUC [A20G A47G A56G] | 0.43
UAACAGGGGGCCACAGCAGGAGCGUUCACGUCGCAGCCCCUGUCAGGUUCUGGUGAAUAUGCGAAUUCUGCUGUAUAUCUC [A20G A47G C59A] | 0.31
UAACAGGGGGCCACAGCAGGAGCGUUCACGUCGCAGCCCCUGUCAGGAUCUGGUGAAUCUGCGAGUUCUGCUGUGUAUCUC [A20G A47G U48A A65G A75G] | 0.08
UAACAGGGGGCCACAGCAGGAGCGUUCACGUCGCAGCCCCUGUCAGGUCCUGGUGAAUCUGCGAAUUCUGCAGUAUAUCUC [A20G A47G U49C U72A] | 0.17
UAACAGGGGGCCACAGCAGGAGCGUUCACGUCGCAGCCCCUGUCAGGUUCUGGUGAAUCUGCGAAUUCUGCAGUAUAUCUC [A20G A47G U72A] | 0.18
UAACAGGGGGCCACAGCAGGAGCGUUCACGUCGCAGCCCCUGUCAGUUUCUGGUGAAACUGCGAAUUCUGCUGUAUAUCAC [A20G A47U U58A U80A] | 0.99
UAACAGGGGGCCACAGCAGGAGCGUUCACGUCGCAGCCCCUGUCAGAUUCUGGUGGAUCUGCGGAUUCAGCUGUAUAUCUC [A20G A56G A64G U69A] | 0.2
UAACAGGGGGCCACAGCAGGAGCGUUCACGUCGCAGCCCCUGUCAGAUUCUGGUGGAUCUGCGAAUUCUGCUGUAUGUCUC [A20G A56G A77G] | 0.5
UAACAGGGGGCCACAGCAGGAGCGUUCACGUCGCAGCCCCUGUCAGAUUCUGGUGAGCCUGCGAAUUCUGCUGUAUAUCUC [A20G A57G U58C] | 0.27
UAACAGGGGGCCACAGCAGGAGCGUUCACGUCGCAGCCCCUGUCAGAUUCUGGUGAGCCUGCGAAUUCUGCCGUAUAUCCC [A20G A57G U58C U72C U80C] | 0.29
UAACAGGGGGCCACAGCAGGAGCGUUCACGUCGCAGCCCCUGUCAGAUUCUGGUGAAUCUGCGCAUCCUGCUGUAUAUCUC [A20G A64C U67C] | 0.21

From the RNAGym collection of RNA variant scans (doi:10.1093/nar/gkz1192)
